The results in this text go back to paper PMC12820563, “FoxP3 forms a head-to-head dimer in vivo and stabilizes its multimerization on adjacent microsatellites”.

The list shows a part of the results.

In the assay the target is T1, MBP-FoxP1dN (Mus musculus, UniProt P58462 326-579).
T1 sequence: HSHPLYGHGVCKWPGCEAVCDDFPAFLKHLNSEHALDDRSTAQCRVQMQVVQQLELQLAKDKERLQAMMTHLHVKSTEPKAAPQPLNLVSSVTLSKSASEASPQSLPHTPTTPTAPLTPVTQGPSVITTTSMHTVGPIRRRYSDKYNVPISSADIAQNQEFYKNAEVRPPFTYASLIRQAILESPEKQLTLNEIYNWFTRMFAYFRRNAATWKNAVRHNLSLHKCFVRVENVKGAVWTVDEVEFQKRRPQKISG
Kind of assay: PD-seq (MBP pull-down with sequencing); 20 mM Tris-HCl pH 7.5, 100 mM NaCl, 1.5 mM MgCl2, 0.4 uM protein, 0.1 uM dsDNA library, 30 min, room temperature, amylose pull-down; high values mean tight binding. The note with it: protein: recombinant; tags: His6-MBP; chain copies: 2; dsDNA, one strand shown. Put shortly: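 Binding is the reads-per-million enrichment of pull-down relative to input, pooled across replicates. For this, 0.4 µM His6-MBP-tagged mouse FoxP3 or FoxP1 fragment lacking the N-terminus, made in E. coli, was incubated with 0.1 µM Klenow-filled double-stranded degenerate DNA library for 30 min at room temperature in Tris pH 7.5 buffer with NaCl and MgCl2. Complexes bound to amylose resin were washed three times before proteinase K released the DNA for PCR barcoding and Illumina sequencing.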
“GATGATTGTTCTCCCAGCTGATGAATTGGTTCCGTCGAGTAAACAAATTTTCCTAATCTTTCTGTTCAAGCGCCATCTAC”: the binding signal is 0.961 RPM ratio (pull-down/input). The same measure for “GATGATTGTTCTCCCAGCTGATGAATTCTTAAAGTCGAGTAAACAAATTTTCCTAATCTTTCTGTTCAAGCGCCATCTAC”: 0.907 RPM ratio (pull-down/input). The same measure for “GATGATTGTTCTCCCAGCTGATGAATTACCAGGGTCGAGTAAACAAATTTTCCTAATCTTTCTGTTCAAGCGCCATCTAC”: 0.877 RPM ratio (pull-down/input); for “GATGATTGTTCTCCCAGCTGATGAATTCAATGTCTCGAGTAAACAAATTTTCCTAATCTTTCTGTTCAAGCGCCATCTAC”: 0.812 RPM ratio (pull-down/input). In the case of “GATGATTGTTCTCCCAGCTGATGAATTCGCTGTTTCGAGTAAACAAATTTTCCTAATCTTTCTGTTCAAGCGCCATCTAC”, the binding signal was 1.03 RPM ratio (pull-down/input). The same measure for “GATGATTGTTCTCCCAGCTGATGAATTTATGAAATCGAGTAAACAAATTTTCCTAATCTTTCTGTTCAAGCGCCATCTAC”: 1.18 RPM ratio (pull-down/input); for “GATGATTGTTCTCCCAGCTGATGAATTATCATGGTCGAGTAAACAAATTTTCCTAATCTTTCTGTTCAAGCGCCATCTAC”: 1.02 RPM ratio (pull-down/input). For “GATGATTGTTCTCCCAGCTGATGAATTCCCAAAGTCGAGTAAACAAATTTTCCTAATCTTTCTGTTCAAGCGCCATCTAC”, the binding signal was 0.748 RPM ratio (pull-down/input). The same measure for “GATGATTGTTCTCCCAGCTGATGAATTCAGATCGTCGAGTAAACAAATTTTCCTAATCTTTCTGTTCAAGCGCCATCTAC”: 0.799 RPM ratio (pull-down/input); for “GATGATTGTTCTCCCAGCTGATGAATTATCCCCGTCGAGTAAACAAATTTTCCTAATCTTTCTGTTCAAGCGCCATCTAC”: 1 RPM ratio (pull-down/input); for “GATGATTGTTCTCCCAGCTGATGAATTTAATGTATCGAGTAAACAAATTTTCCTAATCTTTCTGTTCAAGCGCCATCTAC”: 1.18 RPM ratio (pull-down/input). The same measure for “GATGATTGTTCTCCCAGCTGATGAATTTTTGCCCTCGAGTAAACAAATTTTCCTAATCTTTCTGTTCAAGCGCCATCTAC”: 0.853 RPM ratio (pull-down/input); for “GATGATTGTTCTCCCAGCTGATGAATTCCTGTCATCGAGTAAACAAATTTTCCTAATCTTTCTGTTCAAGCGCCATCTAC”: 1.07 RPM ratio (pull-down/input). The same measure for “GATGATTGTTCTCCCAGCTGATGAATTGGCGCTATCGAGTAAACAAATTTTCCTAATCTTTCTGTTCAAGCGCCATCTAC”: 0.954 RPM ratio (pull-down/input); for “GATGATTGTTCTCCCAGCTGATGAATTTCCACAGTCGAGTAAACAAATTTTCCTAATCTTTCTGTTCAAGCGCCATCTAC”: 0.896 RPM ratio (pull-down/input). For “GATGATTGTTCTCCCAGCTGATGAATTCCAAGGTTCGAGTAAACAAATTTTCCTAATCTTTCTGTTCAAGCGCCATCTAC”, the binding signal was 0.837 RPM ratio (pull-down/input). The same measure for “GATGATTGTTCTCCCAGCTGATGAATTCAGCCGTTCGAGTAAACAAATTTTCCTAATCTTTCTGTTCAAGCGCCATCTAC”: 0.748 RPM ratio (pull-down/input). The same measure for “GATGATTGTTCTCCCAGCTGATGAATTTGATCATTCGAGTAAACAAATTTTCCTAATCTTTCTGTTCAAGCGCCATCTAC”: 0.921 RPM ratio (pull-down/input); for “GATGATTGTTCTCCCAGCTGATGAATTCCTTATATCGAGTAAACAAATTTTCCTAATCTTTCTGTTCAAGCGCCATCTAC”: 0.93 RPM ratio (pull-down/input); for “GATGATTGTTCTCCCAGCTGATGAATTTATTAGTTCGAGTAAACAAATTTTCCTAATCTTTCTGTTCAAGCGCCATCTAC”: 1.35 RPM ratio (pull-down/input). The same measure for “GATGATTGTTCTCCCAGCTGATGAATTCAGAATGTCGAGTAAACAAATTTTCCTAATCTTTCTGTTCAAGCGCCATCTAC”: 0.823 RPM ratio (pull-down/input); for “GATGATTGTTCTCCCAGCTGATGAATTGCGGCACTCGAGTAAACAAATTTTCCTAATCTTTCTGTTCAAGCGCCATCTAC”: 1.07 RPM ratio (pull-down/input). Consider “GATGATTGTTCTCCCAGCTGATGAATTCCGTGGATCGAGTAAACAAATTTTCCTAATCTTTCTGTTCAAGCGCCATCTAC”, for which the binding signal was 0.822 RPM ratio (pull-down/input). The same measure for “GATGATTGTTCTCCCAGCTGATGAATTATTGGGCTCGAGTAAACAAATTTTCCTAATCTTTCTGTTCAAGCGCCATCTAC”: 0.985 RPM ratio (pull-down/input); for “GATGATTGTTCTCCCAGCTGATGAATTCGTTATATCGAGTAAACAAATTTTCCTAATCTTTCTGTTCAAGCGCCATCTAC”: 0.975 RPM ratio (pull-down/input). The same measure for “GATGATTGTTCTCCCAGCTGATGAATTGAAGGGGTCGAGTAAACAAATTTTCCTAATCTTTCTGTTCAAGCGCCATCTAC”: 0.749 RPM ratio (pull-down/input); for “GATGATTGTTCTCCCAGCTGATGAATTAACAGGTTCGAGTAAACAAATTTTCCTAATCTTTCTGTTCAAGCGCCATCTAC”: 0.995 RPM ratio (pull-down/input).

Consider “GATGATTGTTCTCCCAGCTGATGAATTGGGGTGTTCGAGTAAACAAATTTTCCTAATCTTTCTGTTCAAGCGCCATCTAC”, for which the binding signal was 0.867 RPM ratio (pull-down/input). Turning to “GATGATTGTTCTCCCAGCTGATGAATTTGGTAGATCGAGTAAACAAATTTTCCTAATCTTTCTGTTCAAGCGCCATCTAC”, the binding signal was 0.856 RPM ratio (pull-down/input).

“GATGATTGTTCTCCCAGCTGATGAATTTGCAGCATCGAGTAAACAAATTTTCCTAATCTTTCTGTTCAAGCGCCATCTAC”: the binding signal was 1.09 RPM ratio (pull-down/input). The same measure for “GATGATTGTTCTCCCAGCTGATGAATTGAGCGTCTCGAGTAAACAAATTTTCCTAATCTTTCTGTTCAAGCGCCATCTAC”: 0.887 RPM ratio (pull-down/input). The same measure for “GATGATTGTTCTCCCAGCTGATGAATTCCGATTATCGAGTAAACAAATTTTCCTAATCTTTCTGTTCAAGCGCCATCTAC”: 0.972 RPM ratio (pull-down/input); for “GATGATTGTTCTCCCAGCTGATGAATTCTCTCAGTCGAGTAAACAAATTTTCCTAATCTTTCTGTTCAAGCGCCATCTAC”: 0.803 RPM ratio (pull-down/input); for “GATGATTGTTCTCCCAGCTGATGAATTTTTCAAATCGAGTAAACAAATTTTCCTAATCTTTCTGTTCAAGCGCCATCTAC”: 1.16 RPM ratio (pull-down/input).

For “GATGATTGTTCTCCCAGCTGATGAATTAGGCAGATCGAGTAAACAAATTTTCCTAATCTTTCTGTTCAAGCGCCATCTAC”, the binding signal is 0.901 RPM ratio (pull-down/input). In the case of “GATGATTGTTCTCCCAGCTGATGAATTTCGACCATCGAGTAAACAAATTTTCCTAATCTTTCTGTTCAAGCGCCATCTAC”, the binding signal is 0.827 RPM ratio (pull-down/input). The same measure for “GATGATTGTTCTCCCAGCTGATGAATTGCACAGTTCGAGTAAACAAATTTTCCTAATCTTTCTGTTCAAGCGCCATCTAC”: 1.17 RPM ratio (pull-down/input). The same measure for “GATGATTGTTCTCCCAGCTGATGAATTCGCTTACTCGAGTAAACAAATTTTCCTAATCTTTCTGTTCAAGCGCCATCTAC”: 0.979 RPM ratio (pull-down/input). The same measure for “GATGATTGTTCTCCCAGCTGATGAATTGAGATGATCGAGTAAACAAATTTTCCTAATCTTTCTGTTCAAGCGCCATCTAC”: 0.903 RPM ratio (pull-down/input). With “GATGATTGTTCTCCCAGCTGATGAATTACAAGGCTCGAGTAAACAAATTTTCCTAATCTTTCTGTTCAAGCGCCATCTAC”, the binding signal is 1.08 RPM ratio (pull-down/input).
